Patent US20130164251A1 (JIANGSU T MAB BIOPHARMA, published 2013)

T1: G-CSF receptor G-CSFR (R & D company, Item No. 381GR/CF) (UniProt Q99062 25-621, limits assumed)
T1 construct: Bought reagent, amine-coupled to a CM5 chip; also called the receptor
T1 sequence (looked up): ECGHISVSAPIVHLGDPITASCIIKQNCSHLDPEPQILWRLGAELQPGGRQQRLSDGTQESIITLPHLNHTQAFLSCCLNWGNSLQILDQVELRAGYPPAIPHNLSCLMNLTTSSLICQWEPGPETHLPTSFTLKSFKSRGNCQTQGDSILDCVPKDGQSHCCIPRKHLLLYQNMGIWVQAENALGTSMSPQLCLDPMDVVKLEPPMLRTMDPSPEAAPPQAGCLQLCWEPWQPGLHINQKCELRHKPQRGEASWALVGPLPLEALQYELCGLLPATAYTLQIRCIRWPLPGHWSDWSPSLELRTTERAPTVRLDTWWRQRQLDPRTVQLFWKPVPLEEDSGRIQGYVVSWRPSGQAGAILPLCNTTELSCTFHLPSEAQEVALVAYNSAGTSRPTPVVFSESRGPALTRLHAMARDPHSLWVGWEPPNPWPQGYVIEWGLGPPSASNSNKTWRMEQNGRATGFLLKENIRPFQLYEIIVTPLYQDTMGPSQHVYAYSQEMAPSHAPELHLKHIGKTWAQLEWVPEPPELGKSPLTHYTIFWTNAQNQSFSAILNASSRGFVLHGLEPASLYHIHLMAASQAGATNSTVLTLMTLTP

B1: rHSA/G-CSF mutant K34H (ligand)
chain: [not shown - about 600 residues]TPLGPASSLPQSFLLKCLEQVRKIQGDGAALQEHLCATYKLCHPEELVLLGHSLGIPWAPLSSCPSQALQLAGCLSQLHSGLFLYQGLLQALEGISPELGPTLDTLQLDVADFATTIWQQMEELGMAPALQPTQGAMPAFASAFQRRAGGVLVASHLQSFLEVSYRVLRHLAQP
notes: expressed in Pichia pastoris
B2: rHSA/G-CSF mutant A6G (ligand)
chain: [not shown - about 600 residues]TPLGPGSSLPQSFLLKCLEQVRKIQGDGAALQEKLCATYKLCHPEELVLLGHSLGIPWAPLSSCPSQALQLAGCLSQLHSGLFLYQGLLQALEGISPELGPTLDTLQLDVADFATTIWQQMEELGMAPALQPTQGAMPAFASAFQRRAGGVLVASHLQSFLEVSYRVLRHLAQP
notes: expressed in Pichia pastoris
B3: rHSA/G-CSF mutant A37G (ligand)
chain: [not shown - about 600 residues]TPLGPASSLPQSFLLKCLEQVRKIQGDGAALQEKLCGTYKLCHPEELVLLGHSLGIPWAPLSSCPSQALQLAGCLSQLHSGLFLYQGLLQALEGISPELGPTLDTLQLDVADFATTIWQQMEELGMAPALQPTQGAMPAFASAFQRRAGGVLVASHLQSFLEVSYRVLRHLAQP
notes: expressed in Pichia pastoris
B4: rHSA/G-CSF mutant C17S (ligand)
chain: [not shown - about 600 residues]TPLGPASSLPQSFLLKSLEQVRKIQGDGAALQEKLCATYKLCHPEELVLLGHSLGIPWAPLSSCPSQALQLAGCLSQLHSGLFLYQGLLQALEGISPELGPTLDTLQLDVADFATTIWQQMEELGMAPALQPTQGAMPAFASAFQRRAGGVLVASHLQSFLEVSYRVLRHLAQP
notes: expressed in Pichia pastoris
B5: rHSA/G-CSF mutant D109E (ligand)
chain: [not shown - about 600 residues]TPLGPASSLPQSFLLKCLEQVRKIQGDGAALQEKLCATYKLCHPEELVLLGHSLGIPWAPLSSCPSQALQLAGCLSQLHSGLFLYQGLLQALEGISPELGPTLDTLQLEVADFATTIWQQMEELGMAPALQPTQGAMPAFASAFQRRAGGVLVASHLQSFLEVSYRVLRHLAQP
notes: expressed in Pichia pastoris
B6: rHSA/G-CSF mutant D109H + D112H (ligand)
chain: [not shown - about 600 residues]TPLGPASSLPQSFLLKCLEQVRKIQGDGAALQEKLCATYKLCHPEELVLLGHSLGIPWAPLSSCPSQALQLAGCLSQLHSGLFLYQGLLQALEGISPELGPTLDTLQLHVAHFATTIWQQMEELGMAPALQPTQGAMPAFASAFQRRAGGVLVASHLQSFLEVSYRVLRHLAQP
notes: Control mutant; expressed in Pichia pastoris; also called D110H and D113H of Sarker et al. (numbering with N-terminal Met)
B7: rHSA/G-CSF mutant D112E (ligand)
chain: [not shown - about 600 residues]TPLGPASSLPQSFLLKCLEQVRKIQGDGAALQEKLCATYKLCHPEELVLLGHSLGIPWAPLSSCPSQALQLAGCLSQLHSGLFLYQGLLQALEGISPELGPTLDTLQLDVAEFATTIWQQMEELGMAPALQPTQGAMPAFASAFQRRAGGVLVASHLQSFLEVSYRVLRHLAQP
notes: expressed in Pichia pastoris
B8: rHSA/G-CSF mutant E45D (ligand)
chain: [not shown - about 600 residues]TPLGPASSLPQSFLLKCLEQVRKIQGDGAALQEKLCATYKLCHPDELVLLGHSLGIPWAPLSSCPSQALQLAGCLSQLHSGLFLYQGLLQALEGISPELGPTLDTLQLDVADFATTIWQQMEELGMAPALQPTQGAMPAFASAFQRRAGGVLVASHLQSFLEVSYRVLRHLAQP
notes: expressed in Pichia pastoris
B9: rHSA/G-CSF mutant E46D (ligand)
chain: [not shown - about 600 residues]TPLGPASSLPQSFLLKCLEQVRKIQGDGAALQEKLCATYKLCHPEDLVLLGHSLGIPWAPLSSCPSQALQLAGCLSQLHSGLFLYQGLLQALEGISPELGPTLDTLQLDVADFATTIWQQMEELGMAPALQPTQGAMPAFASAFQRRAGGVLVASHLQSFLEVSYRVLRHLAQP
notes: expressed in Pichia pastoris
B10: rHSA/G-CSF mutant E123D (ligand)
chain: [not shown - about 600 residues]TPLGPASSLPQSFLLKCLEQVRKIQGDGAALQEKLCATYKLCHPEELVLLGHSLGIPWAPLSSCPSQALQLAGCLSQLHSGLFLYQGLLQALEGISPELGPTLDTLQLDVADFATTIWQQMEDLGMAPALQPTQGAMPAFASAFQRRAGGVLVASHLQSFLEVSYRVLRHLAQP
notes: expressed in Pichia pastoris
B11: rHSA/G-CSF mutant G4Y (ligand)
chain: [not shown - about 600 residues]TPLYPASSLPQSFLLKCLEQVRKIQGDGAALQEKLCATYKLCHPEELVLLGHSLGIPWAPLSSCPSQALQLAGCLSQLHSGLFLYQGLLQALEGISPELGPTLDTLQLDVADFATTIWQQMEELGMAPALQPTQGAMPAFASAFQRRAGGVLVASHLQSFLEVSYRVLRHLAQP
notes: expressed in Pichia pastoris
B12: rHSA/G-CSF mutant H43R (ligand)
chain: [not shown - about 600 residues]TPLGPASSLPQSFLLKCLEQVRKIQGDGAALQEKLCATYKLCRPEELVLLGHSLGIPWAPLSSCPSQALQLAGCLSQLHSGLFLYQGLLQALEGISPELGPTLDTLQLDVADFATTIWQQMEELGMAPALQPTQGAMPAFASAFQRRAGGVLVASHLQSFLEVSYRVLRHLAQP
notes: expressed in Pichia pastoris
B13: rHSA/G-CSF mutant K16H (ligand)
chain: [not shown - about 600 residues]TPLGPASSLPQSFLLHCLEQVRKIQGDGAALQEKLCATYKLCHPEELVLLGHSLGIPWAPLSSCPSQALQLAGCLSQLHSGLFLYQGLLQALEGISPELGPTLDTLQLDVADFATTIWQQMEELGMAPALQPTQGAMPAFASAFQRRAGGVLVASHLQSFLEVSYRVLRHLAQP
notes: expressed in Pichia pastoris
B14: rHSA/G-CSF mutant K34H + K40H (ligand)
chain: [not shown - about 600 residues]TPLGPASSLPQSFLLKCLEQVRKIQGDGAALQEHLCATYHLCHPEELVLLGHSLGIPWAPLSSCPSQALQLAGCLSQLHSGLFLYQGLLQALEGISPELGPTLDTLQLDVADFATTIWQQMEELGMAPALQPTQGAMPAFASAFQRRAGGVLVASHLQSFLEVSYRVLRHLAQP
notes: expressed in Pichia pastoris
B15: rHSA/G-CSF mutant K34H + L35I (ligand)
chain: [not shown - about 600 residues]TPLGPASSLPQSFLLKCLEQVRKIQGDGAALQEHICATYKLCHPEELVLLGHSLGIPWAPLSSCPSQALQLAGCLSQLHSGLFLYQGLLQALEGISPELGPTLDTLQLDVADFATTIWQQMEELGMAPALQPTQGAMPAFASAFQRRAGGVLVASHLQSFLEVSYRVLRHLAQP
notes: expressed in Pichia pastoris
B16: rHSA/G-CSF mutant K34H + L41I (ligand)
chain: [not shown - about 600 residues]TPLGPASSLPQSFLLKCLEQVRKIQGDGAALQEHLCATYKICHPEELVLLGHSLGIPWAPLSSCPSQALQLAGCLSQLHSGLFLYQGLLQALEGISPELGPTLDTLQLDVADFATTIWQQMEELGMAPALQPTQGAMPAFASAFQRRAGGVLVASHLQSFLEVSYRVLRHLAQP
notes: expressed in Pichia pastoris
B17: rHSA/G-CSF mutant K40H (ligand)
chain: [not shown - about 600 residues]TPLGPASSLPQSFLLKCLEQVRKIQGDGAALQEKLCATYHLCHPEELVLLGHSLGIPWAPLSSCPSQALQLAGCLSQLHSGLFLYQGLLQALEGISPELGPTLDTLQLDVADFATTIWQQMEELGMAPALQPTQGAMPAFASAFQRRAGGVLVASHLQSFLEVSYRVLRHLAQP
notes: expressed in Pichia pastoris
B18: rHSA/G-CSF mutant K40H + L41I (ligand)
chain: [not shown - about 600 residues]TPLGPASSLPQSFLLKCLEQVRKIQGDGAALQEKLCATYHICHPEELVLLGHSLGIPWAPLSSCPSQALQLAGCLSQLHSGLFLYQGLLQALEGISPELGPTLDTLQLDVADFATTIWQQMEELGMAPALQPTQGAMPAFASAFQRRAGGVLVASHLQSFLEVSYRVLRHLAQP
notes: expressed in Pichia pastoris
B19: rHSA/G-CSF mutant L3T (ligand)
chain: [not shown - about 600 residues]TPTGPASSLPQSFLLKCLEQVRKIQGDGAALQEKLCATYKLCHPEELVLLGHSLGIPWAPLSSCPSQALQLAGCLSQLHSGLFLYQGLLQALEGISPELGPTLDTLQLDVADFATTIWQQMEELGMAPALQPTQGAMPAFASAFQRRAGGVLVASHLQSFLEVSYRVLRHLAQP
notes: expressed in Pichia pastoris
B20: rHSA/G-CSF mutant L15I (ligand)
chain: [not shown - about 600 residues]TPLGPASSLPQSFLIKCLEQVRKIQGDGAALQEKLCATYKLCHPEELVLLGHSLGIPWAPLSSCPSQALQLAGCLSQLHSGLFLYQGLLQALEGISPELGPTLDTLQLDVADFATTIWQQMEELGMAPALQPTQGAMPAFASAFQRRAGGVLVASHLQSFLEVSYRVLRHLAQP
notes: expressed in Pichia pastoris

Molecular target: T1, G-CSF receptor G-CSFR (R & D company, …)
Assay: SPR (Biacore 3000), G-CSFR amine-coupled to CM5 chip, 1:1 Langmuir fit
Experimental: The receptor G-CSFR (R & D company, Item No. 381GR/CF) was coupled to FC₄ cell of a CM5 chip by using an amine coupling method in Biacore® 3000 control software Wizard. HBS-P buffer (10 mM HEPES, 150 mM NaCl, and 0.005% (v/v) surfactant P20, pH 7.4) was used as the working buffer, and 1 mg/mL of G-CSFR was diluted with 10 mM NaAC (pH 4.5) to a final concentration of 20 μg/mL. A 1:1 mixture of 0.2 M EDC and 50 mM NHS was injected by flowing through the surface of the chip at a rate of 10 μL/min, G-CSFR solution was injected, then 1 M ethanolamine (pH 8.5) was injected for 7 min to block the activated chip surface.
rHSA/mG-CSF and G-CSF standards were quantitatively diluted with a HBS-P buffer, and a kinetic test was conducted following a kinetic analysis Wizard in Biacore® 3000 control software. All the samples were injected at the flow rate of 30 μL/min, and the injection time of 3 min. After 5 min of disassociation, 50 mM NaOH, 1 M NaCL, and HBS-P buffer were respectively injected for 15 s and 60 s at a flow rate of 100 μL/min for regeneration. The obtained data was fitted using a 1:1 Langmuir binding model in Biacore 3000 analysis software, to obtain exact kinetic constants: […]

Going from B1 to B2, the Kd falls from 18.4 nM to 8.9 nM (2.1-fold). The second binds more tightly here.

Compared with B3, B4 is 5.7-fold lower in Kd: 7.4 nM for the first, 1.3 nM for the second.

B5 and B6 are within 1.5-fold of each other in Kd: 6.5 nM for the first, 5.3 nM for the second.

First: B7
Second: B8
The Kd of the first is 3.9-fold higher: 3.1 nM for the first, 0.8 nM for the second.

First: B9
Second: B10
The Kd of the first is 5.7-fold higher: 8.5 nM for the first, 1.5 nM for the second. The second binds more tightly here.

Compared with B11, B12 is 3.9-fold higher in Kd: 1.1 nM for the first, 4.3 nM for the second.

Compared with B13, B14 is 5.5-fold higher in Kd: 7.3 nM for the first, 40.1 nM for the second. The first binds more tightly here.

B15 and B16 are within 1.5-fold of each other in Kd: 42.7 nM for the first, 28.5 nM for the second.

B17 and B18 are within 1.5-fold of each other in Kd: 25.2 nM for the first, 30.6 nM for the second.

Going from B19 to B20, the Kd rises from 1.8 nM to 4.8 nM (2.7-fold). The first binds more tightly here.
